Results on 22 molecules are retold here after paper PMC12136788.

The list shows a part of the results.

The labels stand for the following.
T1: UNK ZnF1-3 (human, UniProt Q9C0B0 31-174)
T1 sequence: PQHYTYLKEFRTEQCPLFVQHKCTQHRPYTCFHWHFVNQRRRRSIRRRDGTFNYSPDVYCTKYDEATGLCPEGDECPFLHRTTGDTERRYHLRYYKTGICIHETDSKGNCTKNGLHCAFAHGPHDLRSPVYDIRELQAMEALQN

B1: chr5:137537078:137537079:-_ENSG00000094880_ENST00000394886|hu_hu|motif|central (ssRNA)
RNA: GGGAGUUCUACAGUCCGACGAUCAAAUCCAUCAAGUUCUCGAGCUUGGUGUUUUUUGCUGAGCUCCACUCUCAAUUCUCGGAGCGCCUCAUUUUUCACUUGUCCUUUUUCCAGGGGGCCUAAGCUAUCAACUGUUUCAUCGUCCAACAGAGGAUUGAGCAUCA
B2: chr14:76904430:76904431:+_ENSMUSG00000022010_ENSMUST00000022587|mus_mus|mus_mus_mus_hu_True|68_78 (ssRNA)
RNA: GGGAGUUCUACAGUCCGACGAUCUGCAGCCAAAAACACCCUCGUGGAAAAAAAGAGCAAGCUCCAGCAGCCUGGUUUAAGCUAGAUAAAAUCUUCUGGCUUUCCGCAGCCCAGGGAGAAACAGAAAACGGCAGCCCUAAUUUACAACAGAGGAUUGAGCAUCA
B3: chr14:59836542:59836543:+_ENSMUSG00000035469_ENSMUST00000043227|mus_hu|motif|central (ssRNA)
RNA: GGGAGUUCUACAGUCCGACGAUCCCAAGCAAACACCUCUCCAUCAGCUGCCAGAGCCAUUGAAUGAUGUGAGCCACAAGCGGCUUCCACCACUUGCUUGAUCAAGAGAUUGGUACAGACCUGGACGGGAGCAAUGCCUUGGUUCAACAGAGGAUUGAGCAUCA
B4: chr11:32953859:32953860:+_ENSG00000060749_ENST00000399302|hu_hu|FALSE|FALSE (ssRNA)
RNA: GGGAGUUCUACAGUCCGACGAUCAUCUCCAAUUGGGCUACAGGAUAAAGAUGACUGCCUGGUUGUUUCCUGAAAAUUAACUACACUUGAAUUUGAUAGAUAACUAUGUAAGGAGUGCUGUGAACCAGUCAGUUGUGCCUGAAUCAACAGAGGAUUGAGCAUCA
B5: chr11:87793471:87793472:-_ENSMUSG00000020483_ENSMUST00000020775|mus_mus|mus_mus_mus_hu_False|18_78 (ssRNA)
RNA: GGGAGUUCUACAGUCCGACGAUCUGGACUUGAAAAUAAAAGAAUAAGCUGGAUCCCCCCACCCCUUACAUUGUCAACCCUACACGAGAGUUUUGAAGGCGACUCAUGAAAAUCAGCCUCAAUUGGCGCAAUGACCACCCCACCCAACAGAGGAUUGAGCAUCA
B6: chr3:97503841:97503842:+_ENSG00000113966_ENST00000463745|hu_hu|motif|central (ssRNA)
RNA: GGGAGUUCUACAGUCCGACGAUCAUCUGGAUGAUUCAGAAGAGUAUCGAGUUCUUCUUUGGCCACAACCAUUCUUAAUCGGUCACGGCUAUCAAUGACAAAAAUAAUAGCUUGGCCUUCUUUAUAAUAGUGUUCCCAGAGAUUCAACAGAGGAUUGAGCAUCA
B7: chr1:60041781:60041782:+_ENSMUSG00000041040_ENSMUST00000036540|mus_hu|mus_mus_mus_hu_False|1_78 (ssRNA)
RNA: GGGAGUUCUACAGUCCGACGAUCAAGUUUACAAUAGUAAAGUAAAUGCAGUAGUGGAAUGGCAAGUUUUAUUUUCCUUCACAAAAGAAAAUCUUUAUAACCCAGUCCUAGUCUUGGACAUAGUGAAAGCUAUAAAUGCCACUGCAACAGAGGAUUGAGCAUCA
B8: chr7:135832113:135832114:+_ENSMUSG00000042105_ENSMUST00000118605|mus_mus|FALSE|FALSE (ssRNA)
RNA: GGGAGUUCUACAGUCCGACGAUCACAGGAAAAAUACAGCCCCACUGGCACUUUAACCAUAAGUCCUGCAAAAAGAAGGAAAAUCUUAAAAGUCAUGGCGAGAACGCCAUCGGACUUAGGUUCCGCAGCGUUGGCAGCUGGAGCCAACAGAGGAUUGAGCAUCA
B9: chr12:121221538:121221539:-_ENSG00000157837_ENST00000353487|hu_mus|FALSE|FALSE (ssRNA)
RNA: GGGAGUUCUACAGUCCGACGAUCGAGGUGAGCAGGGCCUUGUUAAAUACUGGCACAUCGGGAGAAGAAGAAAAGCAAAAGCUAUUGUUGCAAGAACUGCUGUACAUAUUGUGAAAACGACUUGAACUGAAUCAAAGAAGAAGACAACAGAGGAUUGAGCAUCA
B10: 30750662_30751217_4568_CDS_ENSMUSG00000040850_ENSMUST00000041231|mouse|control|control (ssRNA)
RNA: GGGAGUUCUACAGUCCGACGAUCCCCCCCUUCACCACUCAAUGGUGACUCCAAGAGCAGCUCAAAAAGCCAGUGAAGCUUCCGGGGAUCUCUGCUUUCACAGGAAGUGGCUAUACAGGUCCCCCAGUCAUUGUAUGUCUCCACCAACAGAGGAUUGAGCAUCA
B11: chr2:47387792:47387793:-_ENSG00000143933_ENST00000272298|hu_hu|hu_hu_hu_mus_True|18_38 (ssRNA)
RNA: GGGAGUUCUACAGUCCGACGAUCUAAGGACAAUGACAGUAAGAUAAGGGAAGAAAACAUGGAGGAAUGAAGUCCUAAUUACUAUACAUGCAUAUUUUUUUGACAGUGGGGGGGGGACUUUUACAGAGAUAAGUUACAAACAAACAACAGAGGAUUGAGCAUCA
B12: 119742188_119742308_1329_CDS_ENSMUSG00000033943_ENSMUST00000110774|mouse|control|control (ssRNA)
RNA: GGGAGUUCUACAGUCCGACGAUCCACUGUUAUCCCUUCUGGGCAUUCACCAAGUUCAUAAUCAUAAUCAUCUAGAGGCUCUUCUUUAAUGACGACAUUAAAGUUUCCAUUCGGGUUUGAUGGUGAGGAAAUCUGGGAAUCAUCCAACAGAGGAUUGAGCAUCA
B13: chr1:149875238:149875239:-_ENSG00000159164_ENST00000369146|hu_hu|FALSE|FALSE (ssRNA)
RNA: GGGAGUUCUACAGUCCGACGAUCUUUUGUUAUUUUCACUUUUUUCCUUUUAACAUUUUUUUAAACAUUUUACAAACAUCUAAAAACUACAACACGUCACAGCUACAGUGGGGUGAGGGGAGGGCACCAAAGAAAGCAGCCACACAACAGAGGAUUGAGCAUCA
B14: chr6:50807893:50807894:+_ENSG00000008196_ENST00000393655|hu_mus|motif|central (ssRNA)
RNA: GGGAGUUCUACAGUCCGACGAUCCUCGGACACGGCUUUAGCAGGAAACUCUGUUUCACAAAUAUACCCGAAAUCCCGAGCGGAGUGAACAGCUUCCCCUUCUACCAGUGAGGUGAGUAACGUGACAUUUGCUGCUUUGCGCCUCAACAGAGGAUUGAGCAUCA
B15: chr10:104572449:104572450:+_ENSG00000166272_ENST00000448841|hu_mus|FALSE|FALSE (ssRNA)
RNA: GGGAGUUCUACAGUCCGACGAUCAGCGCCUGGGGGGCUGCCACCUGGAGGGCCACCCUGAGGAGGAGGUGGCAGCAGCUGCUGCUGCUGUUGGAGCUGGAAGGCACUGUACGGUGGGGGAGGAGUUGGAGGUCGGUUCACCACCAACAGAGGAUUGAGCAUCA
B16: chr3:44794862:44794863:-_ENSG00000163807_ENST00000296121|hu_mus|motif|central (ssRNA)
RNA: GGGAGUUCUACAGUCCGACGAUCGUCCACAAUAUUCAUAUUUACUCAUUUUCAUCUUCACUGUCAAAAGAAAGGAGACUGCGGUUUUUUAUUUGUUUUUGUGAGUUCUUUCUAACUGAACUUUGCUUAUUUACAUCAUCUUCACAACAGAGGAUUGAGCAUCA
B17: chr4:39779992:39779993:+_ENSG00000078140_ENST00000510719|hu_mus|FALSE|FALSE (ssRNA)
RNA: GGGAGUUCUACAGUCCGACGAUCACUCAGAAGCAGUUCUGUUGCAGUCUCUACAUCCCAUGAUUUUGAAGACAAGGCCACUAUUACUGCGUUCCUAUCAAAACCCAUAGCACAGAGGUUUUCUAUUUUUUUGGUGUAUUCUGGCAACAGAGGAUUGAGCAUCA
B18: chr11:118025658:118025659:-_ENSMUSG00000017132_ENSMUST00000017276|mus_hu|FALSE|FALSE (ssRNA)
RNA: GGGAGUUCUACAGUCCGACGAUCUUGUAUUUUGACAAAACUUCUUUUAAACAAAUACAAAAUAAUCUAAAAGGAGAAAAACUAUACAUAGAUUAUUUACACCUCUGAUAAAUAGACUAAUACUGACCCAGGUGCCUCUCUGUCCAACAGAGGAUUGAGCAUCA
B19: chr7:75932113:75932114:+_ENSG00000106211_ENST00000248553|hu_hu|hu_hu_hu_mus_False|98_98 (ssRNA)
RNA: GGGAGUUCUACAGUCCGACGAUCCUGCGACCACUCAUCCGGCAGCCGGGGCACCCCGAAAGCUUGAUCGAAGAGGCGGCUGUGUGCAGGGUACCAGUCCCGGAAUGGUUCCCAGCUCGGGCUCCGCAGCAGCGAGAAGGGCACCAACAGAGGAUUGAGCAUCA
B20: chrX:140365796:140365797:-_ENSMUSG00000031285_ENSMUST00000033642|mus_mus|mus_mus_mus_hu_False|18_28 (ssRNA)
RNA: GGGAGUUCUACAGUCCGACGAUCCUUCUCAUUACUCAGUGCCUGCAAGGUUCUGGUUCGGUAGAAGCUACAGUGGGCGCUGUGAGUGGGGCUAGGCAACCCAUUCAUCCGUGACCCUCUCAUAUUUCUGGAUGUCUUAUCUCUCAACAGAGGAUUGAGCAUCA
B21: 99087834_99087954_2473_CDS_ENSG00000152767_ENST00000319562|human|control|control (ssRNA)
RNA: GGGAGUUCUACAGUCCGACGAUCCGGAACCACAAGAUUGUCAAUGCCAAUCAAAUCUUUCUUGAGUUCGUGCAGCUUCUGGAAAUUCUCCAUCUUGAUCAUCGUACCGUGGAGCUGUGCCACCAUCUCCGUGAUCUCUGCCAACAACAGAGGAUUGAGCAUCA
B22: 114483797_114483917_1084_3pUTR_ENSG00000163349_ENST00000369558|human|control|control (ssRNA)
RNA: GGGAGUUCUACAGUCCGACGAUCCAUCAAGGCUGUGGCCACCUGCUGCAAGAUUGGUCUGAUGUACUUGAGUGGCAGUGGGCUAAAUUUGUUUUGCUUUAGAAAAUCAUAUAAGUUCUGCUCCAACAUUUCAAAAACAAGGCACAACAGAGGAUUGAGCAUCA

For this experiment, the target named is T1, UNK ZnF1-3. In words: nsRBNS (natural sequence RNA bind-n-seq); RBNS binding buffer (assumed for nsRBNS): 25 mM Tris pH 7.5, 150 mM KCl, 3 mM MgCl2, 0.01% Triton X-100, 500 ug/ml BSA, 20 U/ml SUPERase-In, 4 C; UNK is unkempt and MSI1 is Musashi-1; names of the RNAs are library labels; protein concentration not given here; high values mean tight binding.
As for B1, the binding signal was 0.525 enrichment R.

Molecule B2 returned a binding signal of 1.95 enrichment R.

The molecule B3 showed a binding signal of 1.13 enrichment R.

Molecule B4 gave a binding signal of 1.28 enrichment R.

Regarding B5, the binding signal came out at 1.6 enrichment R.

On to B6, for which the binding signal came out at 0.839 enrichment R.

Molecule B7 registered a binding signal of 0.739 enrichment R.

B8 gave a binding signal of 1.03 enrichment R.

On to B9, for which the binding signal was 2.46 enrichment R.

The molecule B10 yielded a binding signal of 0.867 enrichment R.

As for B11, the binding signal was determined as 2.41 enrichment R.

For the molecule B12, the binding signal is 1.15 enrichment R.

The molecule B13 returned a binding signal of 1.23 enrichment R.

As for B14, the binding signal was determined as 0.794 enrichment R.

Regarding B15, the binding signal came to 2.24 enrichment R.

In the case of B16, the binding signal is 0.777 enrichment R.

B17 registered a binding signal of 0.737 enrichment R.

For the molecule B18, the binding signal is 1.43 enrichment R.

As for B19, the binding signal was 1.07 enrichment R.

On to B20, for which the binding signal worked out at 0.603 enrichment R.

B21 gave a binding signal of 0.693 enrichment R.

The molecule B22 returned a binding signal of 1.75 enrichment R.
